The list shows a part of the results.
System: PfHDP1 homeodomain (GST-tagged)
Test: gcPBM binding intensity (ln(normalized median fluorescence intensity)); higher = stronger DNA binding
Procedure, shortened: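 Binding intensity is the highest Masliner-normalised natural-log median intensity over replicate spots in either probe orientation. To obtain it, GST-tagged P. falciparum DNA-binding domains made in E. coli were incubated for 1 h on an Agilent 4 × 180k array of primer-extended double-stranded 36-bp intergenic genomic probes plus negative controls. Detection used Alexa488 anti-GST antibody with scanning at 488 nm.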

| Sequence | gcPBM binding intensity (ln) |
| --- | --- |
| TTATTCCTTTTCCTTTTTTTTTTTTAACCAAAAAAA [CACACA_negctrl_site309] | 6.25 |
| ATACATAAATTTTGTACACACAAAAAAAAAAAAGCT [CACACA_site1351] | 6.46 |
| TTTATATATATAAATATGTAGATAACAATATTCTGA [TGCATGCA_negctrl_site554] | 6.13 |
| AAAATATACATATATGCATGCATATAAATAAAAAAA [TGCATGCA_site812] | 6.77 |
| AATGTTTATTTTGTTTGTACATAAAATGAATAAAAT [XGTACX_site1456] | 6.24 |
| TATATATATTTATGCACACAAAATATATTATAGAAT [CACACA_site3740] | 9.64 |
| GTTATATATTTTTATGCATGCATTTTTAAATATATA [TGCATGCA_site175] | 6.86 |
| ATTACAATATATACGTGTACATATTACCACCGCTAC [XGTACX_site2308] | 6.67 |
| TGTAAAAAATTTAACACACACATATATATATATATA [CACACA_site2585] | 9.33 |
| ATAAAAATATTACGCACACACAAACTTATTCATTAT [CACACA_site1969] | 7.49 |
| TTGTTCAAACAAAAAATAAAATAATTGAAAATAAAA [CACACA_negctrl_site812] | 6.43 |
| GTAACTTTATTATACTGTACTATTATATAAGCACAC [XGTACX_site2859] | 6.77 |
| TTACAAAATAAGAGGCACAAACACAAAAAAAAATAA [CACACA_negctrl_site574] | 6.94 |
| TAGAATAAGATAGATATACACACCATTATAAATATA [CACACA_site2500] | 6.59 |
| AAAAAAAAAAGACACACACACAAAAAAAGATATATA [CACACA_site6645] | 6.58 |
| AAAAAAAATTATTATGAACACACATTTATTATATTC [CACACA_site8443] | 5.92 |
| ATTCTACACAGACATACACACATATATATATATATA [CACACA_site5826] | 9.34 |
| TAATATGATCTTAATAGTACTTTATTAATAATAACC [XGTACX_site1953] | 6.25 |
| TATATATGTTTATGTAGTACTATATATCCCTTTCTT [XGTACX_site7049] | 6.7 |
| TATTGATTATTTGAATGTACTTATTATATTAAATAT [XGTACX_site1304] | 6.04 |
| GCACACATATAATAATGTACATATATATATTTAAAA [XGTACX_site4561] | 6.87 |
| AATAAAAATATTTTTACATGCAAATGTTATATATTT [TGCATGCA_site1056] | 6.72 |

| Sequence | gcPBM binding intensity (ln) |
| --- | --- |
| ACACGCACATATATATAAATATATATATATATAAAT [CACACA_negctrl_site1781] | 7.19 |
| AGTTGTTACGAACATACACACGAACATAGACACGGA [CACACA_site8102] | 6.99 |
| ATGAGTGTAATAATATGTACATAACCTACATAATTT [XGTACX_site852] | 6.76 |
| AAAAAAAAATATATAAACACACATATTTATATACAC [GTGCAC_negctrl_site545] | 6.23 |
| TTATTTAAATAATATGTACACACATTTAAAAAATTA [CACACA_site8912] | 6.39 |
| AAAAATAAAATGGACACACACGTTCAAATTTAGATT [CACACA_site5186] | 6.5 |
| GGATGCACACAAAAGGGTACATAAGAAAAAAACAGG [XGTACX_site8570] | 9.42 |
| CACGCACAGATATATACACACTTTTATTTAAATAAC [CACACA_site6852] | 7.44 |
| AAATATATATATAGTTGTACATATATCGTATATATT [XGTACX_site7867] | 6.44 |
| TTCACTAATAAATACGCACACATATACAGATATATA [CACACA_site4887] | 7.5 |
| TGGGTAAACAAACACACACACATATATATATATATA [CACACA_site1992] | 9.3 |
| CCCCCCCACAGACACACACACATACATACCACATAT [CACACA_site2306] | 8.2 |
| ATATATATATAATAAACACACAAATAGATATAACAT [CACACA_site3715] | 8.36 |
| GGACAAGTTTTTTACATAAATAAAAAAAATAAAAAA [XGTACX_negctrl_site125] | 6.19 |
| TTAAAGCTGACATATACACACATACATAAATTCATA [CACACA_site5377] | 6.75 |
| TATACATATATTATATGTACATATATATATAATATA [XGTACX_site2942] | 6.4 |
| AAAAAAAATACATACACACACACACCCACATATATA [CACACA_site3561] | 6.9 |
| AATATAAAAAAAGAGGAGGGATGGTATACTTGTGGT [CACACA_negctrl_site986] | 6.96 |
| ATAGAAGGCAACTTGGTGCACAAAAAAAAAAATAAT | 10.5 |
| TTTTTTAAAAGATATATAATATGTATGAATATTCAA [XGTACX_negctrl_site380] | 6.19 |
| AATGTGAAAAAAAAAAGTACAGACCTAATCAAAAAA [XGTACX_site2486] | 6.47 |
| ATACTTATGATAAATACACACTTGAAATTAAGGATT [CACACA_site4772] | 6.74 |

| Sequence | gcPBM binding intensity (ln) |
| --- | --- |
| CGAACAAACAAATAAACACACAAAAAAAAATATATA [CACACA_site1825] | 6.63 |
| AATATATTTCATTTTTGTACACACAACGTTGGAGGG [XGTACX_site6461] | 7.05 |
| CAACATATGCATATGTGTACATATTTTATTTTCAAC [XGTACX_site2237] | 6.83 |
| ATATACTCATTAATAACACACAATATGATAACAAAT [CACACA_site5913] | 6.91 |
| ACATACATATGTAAATGTACAAAATATCCATAGATT [XGTACX_site2782] | 6.63 |
| TTTTATTTCATTTGTTGTACTTTCAAAATATTATTA [XGTACX_site2192] | 6.83 |
| AAGAATAAAGAATGGTGTACATGCATATAAAATATT [XGTACX_site5707] | 6.72 |
| AGTGTTTTTTATAAAGTGCAATATAAAAACAAAATG | 9.33 |
| ATGTTATATATGTATTGTACGTATTTTGTATATTAT [XGTACX_site6607] | 6.94 |
| AATTTTTTTTTATTGTGTACTTATTTTTTTATATTT [XGTACX_site917] | 6.74 |
| GATAAATCATATATAACACACATATGAATATTACAA [CACACA_site1321] | 6.31 |
| AAAAGAAACTTATTTACGCACACTTTATTGCATGTT [CACACA_site3887] | 6.97 |
| TAAGATATATTTTTTTGTACACATAATAAAATAATA [XGTACX_site8938] | 6.32 |
| GTAATTTTGAGATGATGTACATATTTTTTCCTTGTC [XGTACX_site4103] | 6.39 |
| TATATATTATCAAGTGGACACACGAAAAAAAGGAAA [CACACA_site3741] | 6.95 |
| TAAAGATTGTTCAGTGCATGTTGGCCTGTAAATGGA [TGCATGCA_site315] | 7.37 |
| TTTTTCATATTATACTTTTATATACATATATAAAAA [XGTACX_negctrl_site281] | 6.49 |
| ATAATGTAGAACTAGAGTACATAAAAAAATAAACAT [XGTACX_site5205] | 7.17 |
| GCTACACAATTTTTTAGTACACACATATAAATATAT [XGTACX_site3131] | 7.27 |
| TTTTTTTTTTTTTTTTTTTGTCTTATATATTACGGA [CACACA_negctrl_site322] | 6.2 |
| TATATGCACTTAATATGTACACAAAAAAAAAAAAAA [XGTACX_site6199] | 9.79 |
| CTTATATTAAAAACTTGTACACATGTTAAGAATTTT [XGTACX_site5857] | 6.24 |

| Sequence | gcPBM binding intensity (ln) |
| --- | --- |
| TTTATATATTATACATGTACATATTTATTTATATAA [XGTACX_site3474] | 6.51 |
| AAAAAAAAAAAATCATGTACTTATTTTTCATTGTTG [XGTACX_site1542] | 6.03 |
| AAATAAGCATATACAAACATGCATACATATAAATAA [CACACA_negctrl_site246] | 6.43 |
| AGTATAAAAATAAGCACACACACAAATATATATTTA [CACACA_site923] | 7.08 |
| ATAATATAAATATTAACACACATCCTTTTATGTATA [CACACA_site6685] | 6.27 |
| TTTCTTCTGCATTATGCACACTATAATTCGTTAAAA [CACACA_site5568] | 10.5 |
| TTTTCTTTTACAAAGGGTACATAATTTAAATTCATA [XGTACX_site3876] | 6.32 |
| ATTATATTCCAAGTTTGTACATATATATAAAAGTAT [XGTACX_site1631] | 6.63 |
| ATACATATATATATTCTACACACTTATAATATAATA [CACACA_site8782] | 7.03 |
| GTAAAAGTTAAAAAAACATGCAAAATTTAAAAAAAA [TGCATGCA_site637] | 6.62 |
| ACTATATTTGCCCTTTTAATCAGAACAAAAAAAAAA [CACACA_negctrl_site1051] | 6.31 |
| CTATAAATAACAGAAAGTACATATACATGGATATAT [XGTACX_site3317] | 6.46 |
| TAAAAGAAATAAGGTGCACACATATACATATATATA [CACACA_site8037] | 9.46 |
| TTTCTAAATGTTTATATATATATATATATATAAATA [GTGCAC_negctrl_site397] | 6.97 |
| AATATATCAAAAATTGGATAGTTTCTTATAAAAAAT [CACACA_negctrl_site39] | 6 |
| TTCTTTTCAGAAGGAAAGAATTATAACATATCATAA [XGTACX_negctrl_site548] | 6.13 |
| ATATTATGTGAAGAACGTACAAATTTTTACACTATA [XGTACX_site1485] | 6.79 |
| TATTTTGCTCATCCATGTACACATAGATATATTTTA [XGTACX_site8244] | 9.23 |
| TTACAAAACACTTATACACACATATAAATATAAATA [CACACA_site7307] | 6.78 |
| CTCCTCATATAATTTTGTACATAAAAAATTACCATT [XGTACX_site3879] | 6.8 |
| TGTTATATATATTGACTTAATAAATAAATAAATATA [GTGCAC_negctrl_site590] | 5.89 |
| ATTAATATATAACGTGCACACACACCGTTACGTATG [CACACA_site8543] | 9.1 |

— the supplement of paper PMC11417369
